US7374786B2 (priority 2004, dated 2008)
Values joined by “and” are separate entries in the source; they are usually repeats but may differ in a detail not shown here. Identical values can stand only once.

System: Citrus sinensis protoplast

Cc1cc2nc3c(=O)[nH]c(=O)nc-3n(C[C@H](O)[C@H](O)[C@H](O)CO)c2cc1C [Riboflavin, riboflavin]
H2O2 equivalents: 2.3 µM and 2.0 µM
